Reference: the antibiotic and cytotoxicity screens of Wong et al. (2023)
Some of the results follow.

What was measured:
[1] = tested on: HSkMC (human skeletal muscle cells); test: cytotoxicity call (relative viability < 0.9); settings: 10 µM
[2] = tested on: HepG2; test: cytotoxicity call (relative viability < 0.9); settings: 10 µM
[3] = tested on: S. aureus RN4220; test: growth inhibition call (relative growth <= 0.2); settings: 50 µM

Structure (SMILES) | cytotoxicity call [1] | cytotoxicity call [2] | growth inhibition call [3]
Cc1ccc(S(=O)(=O)N(C)C[C@@H]2Oc3ncc(C#Cc4ccccc4)cc3C(=O)N([C@H](C)CO)C[C@@H]2C)cc1 | inactive | inactive | inactive
COc1ccc(NC(=O)N(C)C[C@@H]2OCCCC[C@@H](C)Oc3ccc(NS(=O)(=O)c4ccc(OC)cc4)cc3C(=O)N([C@H](C)CO)C[C@@H]2C)cc1 | inactive | inactive | inactive
C=CCN1CCC[C@@H]1C(=O)O | inactive | inactive | inactive
Cc1[nH]c(=O)[nH]c(=O)c1S(=O)(=O)N1CCC(C(=O)N[C@H](C)c2ccccc2)CC1 | inactive | inactive | inactive
C[C@H](CO)N1C[C@H](C)[C@H](CN(C)C(=O)Nc2ccc(C(F)(F)F)cc2)OCCCC[C@H](C)Oc2ccc(NS(=O)(=O)c3cccs3)cc2C1=O | inactive | active | inactive
C[C@H]1CCCCO[C@H](CN(C)C(=O)Nc2ccc(C(F)(F)F)cc2)[C@@H](C)CN([C@@H](C)CO)C(=O)c2cc(NS(C)(=O)=O)ccc2O1 | inactive | inactive | inactive
CO/N=C(\C(=O)N[C@@H]1C(=O)N2C(C(=O)O[C@@H](C)OC(C)=O)=C(COC(N)=O)CS[C@H]12)c1ccco1 | inactive | inactive | inactive
CCCCC(CC)CN1CN(CC(CC)CCCC)CC(C)(N)C1 (stereo not given) | active | active | inactive
COc1ccc(NC(=O)N(C)C[C@H]2Oc3c(NC(=O)CCCCCC(=O)Nc4ccccc4N)cccc3C(=O)N([C@@H](C)CO)C[C@@H]2C)cc1 | inactive | inactive | inactive
Cc1noc(C)c1S(=O)(=O)N(C)C[C@@H]1Oc2ccc(NC(=O)C3CCCCC3)cc2CC(=O)N([C@H](C)CO)C[C@@H]1C | inactive | inactive | inactive
C[C@@H]1CN([C@H](C)CO)C(=O)c2cccc(NS(=O)(=O)c3ccc(F)cc3)c2O[C@H]1CN(C)S(=O)(=O)c1cccs1 | inactive | inactive | inactive
COc1ccc(CN(C)C[C@@H]2Oc3ccc(NC(=O)Nc4cccc5ccccc45)cc3C(=O)N([C@@H](C)CO)C[C@H]2C)cc1 | inactive | inactive | inactive
COc1ccc(S(=O)(=O)Nc2ccc3c(c2)[C@H]2C[C@H](CC(=O)NCC4CC4)O[C@@H](CO)[C@H]2O3)cc1 | inactive | inactive | inactive
COc1ccc(S(=O)(=O)N(C)C[C@H]2Oc3c(NC(=O)c4cnccn4)cccc3C(=O)N([C@H](C)CO)C[C@H]2C)cc1 | inactive | inactive | inactive
CC(C)(C)[S@@+]([O-])N1Cc2cc(C(=O)NCc3ccc4c(c3)OCO4)nc(-c3ccc(-c4ccccc4)cc3)c2[C@H]1CCO | inactive | inactive | inactive
C[C@H](CO)N1C[C@H](C)[C@@H](CN(C)C(=O)Cc2ccncc2)Oc2ncc(C#Cc3ccccc3F)cc2C1=O | inactive | inactive | inactive
C[C@@H]1CN([C@@H](C)CO)C(=O)c2cccc(NC(=O)C3CC3)c2O[C@@H]1CN(C)S(=O)(=O)c1ccccc1 | inactive | inactive | inactive
CCOC(=O)c1ccc(O)cc1 | inactive | inactive | inactive
COc1ccccc1CN1C[C@@H](C)[C@H](OC)CN(C)C(=O)c2cc(NC(=O)Nc3ccccc3OC)ccc2OC[C@H]1C | inactive | inactive | inactive
C[C@@H]1CCCCO[C@H](CN(C)C(=O)Nc2ccccc2)[C@@H](C)CN([C@H](C)CO)C(=O)c2cc(NC(=O)c3ccccc3)ccc2O1 | inactive | inactive | inactive
CC1(C)SC2C(NC(=O)C(C(=O)[O-])c3ccccc3)C(=O)N2C1C(=O)[O-].[Na+].[Na+] (stereo not given) | inactive | inactive | active
C[C@H](CO)N1C[C@H](C)[C@@H](CN(C)Cc2ccc(-c3ccccc3)cc2)Oc2c(NC(=O)Nc3ccc(F)cc3)cccc2C1=O | inactive | inactive | inactive
CC(C)(ON=C(C(=O)NC1C(=O)N2C(C(=O)[O-])=C(C[n+]3ccccc3)CSC12)c1csc(N)n1)C(=O)O (stereo not given) | inactive | inactive | inactive
COCC(=O)Nc1ccc2c(c1)C(=O)N(C)C[C@H](OC)[C@H](C)CN(Cc1ccccc1OC)[C@@H](C)CO2 | inactive | inactive | inactive
C=CCOC(=O)[C@@H]1[C@H]2C(=O)O[C@H](c3ccccc3)[C@H](c3ccccc3)N2[C@H](c2ccc(OCCOC(=O)[C@H]3C[C@H]4C(=O)N[C@@H](CCCCNC(C)=O)C(=O)N4[C@H]3c3cccc(OCCO)c3)cc2)[C@@]12C(=O)Nc1ccc(I)cc12 | inactive | inactive | inactive
